Experimental data published in US20260055173A1 (published 2026).

What was measured:
[1] = target: monkey PD-1 (ACRO, His tag) (monkey, UniProt B0LAJ3 25-170); assay: ELISA, monkey PD-1 (His tag) coated, anti-human IgG Fc-HRP
Description: The binding of candidate molecules and competitor to antigens of different species was detected by ELISA. […] The binding of antibodies to monkey PD-1 was detected by ELISA. An ELISA plate was coated with 1 μg/mL monkey PD-1 (ACRO, His tag) overnight and blocked. Subsequently, the plate was added with gradient dilutions of the sample to be tested and the control antibody, incubated and washed. Then, the plate was added with HRP-labeled anti-human IgG Fc secondary antibody, incubated and washed. After TMB solution was added for color development, the OD450 absorbance value was read on a microplate reader (see Table 15).

[2] = target: T1, biotin-labeled human VEGF (ACRO, biotinylated protein) (human, UniProt P15692-4 27-191, limits assumed, biotinylated (site not stated)); assay: competition ELISA: human VEGFR1 (Fc tag) coated, antibody mixed with biotinylated human VEGF, streptavidin-HRP
T1 sequence (looked up): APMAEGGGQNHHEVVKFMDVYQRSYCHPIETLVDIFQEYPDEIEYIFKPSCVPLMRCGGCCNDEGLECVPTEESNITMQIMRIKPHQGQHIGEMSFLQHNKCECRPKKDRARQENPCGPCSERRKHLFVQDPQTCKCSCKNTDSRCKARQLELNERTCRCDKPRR
Description: (§1) ELISA plates were respectively coated with 2 μg/mL human VEGFR1 and 5 μg/mL human VEGFR2 (in-house constructed and expressed, Fc tag) overnight, washed and blocked. […] Then the plates were added with HRP-labeled streptavidin and incubated for 1 hour. After TMB solution was added for color development, the OD450 nm absorbance value was read on a microplate reader.

[3] = target: T2, human PD-1 (ACRO, His tag) (human, UniProt Q15116 in part); assay: ELISA, human PD-1 (His tag) coated, anti-human IgG Fc-HRP
T2 construct: not shown: His tag
Description: (§2) The binding of the antibody to human PD-1 was detected by ELISA. 1 μg/mL human PD-1 (ACRO, His tag) was coated on an ELISA plate overnight and blocked. Subsequently, the plate was added with gradient dilutions of the bispecific antibody and the control antibody, incubated and washed. Then, the plate was added with HRP-labeled anti-human IgG Fc secondary antibody, incubated and washed. After TMB solution was added for color development, the OD450 absorbance value was read on a microplate reader (see Table 12). […] Subsequently, the plate was added with gradient dilutions of the sample to be tested and the control antibody, incubated and washed. Then, the plated was added with HRP-labeled anti-human IgG Fc secondary antibody, incubated and washed. After TMB solution was added for color development, the OD450 absorbance value was read on a microplate reader (see Table 13). […] (The control substances were all obtained by in-house expression and purification)

[4] = target: T3, human VEGF (ACRO, His tag) (human, UniProt P15692-4 27-191, limits assumed); assay: ELISA, human VEGF (His tag) coated, anti-human IgG Fc-HRP
T3 construct: not shown: His tag
T3 sequence (looked up): T1 sequence (looked up)
Description: as §2

[5] = target: T4, human VEGF (Sino Biological, no label) (human, UniProt P15692-4 27-191, limits assumed); assay: dual (bridging) ELISA: human VEGF (no label) coated, antibody, then human PD-1 (His tag), anti-His-HRP
T4 sequence (looked up): T1 sequence (looked up)
Description: Biological, no label) overnight, washed and blocked for 1 hour. Subsequently, the plate was added with gradient dilutions of the test antibody, incubated for 2 hours, then added with 1 μg/mL of human PD-1 (ACRO, His tag), incubated for 2 hours, washed, and incubated with HRP-labeled anti-His antibody for 1 hour. After TMB solution was added for color development, the OD450 nm absorbance value was read on a microplate reader.

[6] = target: T2, human PD-1 (ACRO, His tag); assay: dual (bridging) ELISA: human PD-1 (His tag) coated, antibody, then biotinylated human VEGF, streptavidin-HRP
T2 sequence (Q15116 25-167 limits assumed): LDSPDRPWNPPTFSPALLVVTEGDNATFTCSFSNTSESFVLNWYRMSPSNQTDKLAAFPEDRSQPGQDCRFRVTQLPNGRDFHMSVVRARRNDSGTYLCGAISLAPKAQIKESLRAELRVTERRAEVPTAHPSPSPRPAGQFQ
Description: The order of the binding to VEGF and PD-1 was changed for dual ELISA detection. A 96-well ELISA plate was coated with 1 μg/mL human PD-1 (ACRO, His tag) overnight, washed and blocked for 1 hour. […] TMB solution was added for color development, and the OD450 nm absorbance value was read on a microplate reader.

[7] = target: T5, human PD-1 (ACRO, Fc tag) (human, UniProt Q15116 in part); assay: competition ELISA: human PD-1 (Fc tag) coated, antibody mixed with human PD-L1 (His tag), anti-His-HRP
T5 construct: not shown: Fc tag
Description: An ELISA plate was coated with 1 ug/mL of human PD-1 (ACRO, Fc tag) overnight, washed and blocked. […] Then the plate was added with HRP-labeled anti-His antibody, and incubated for 1 hour. After TMB solution was added for color development, the OD450 absorbance value was read on a microplate reader (see Table 16).

[8] = target: T1, biotin-labeled human VEGF (ACRO, …); assay: competition ELISA: human VEGFR2 (Fc tag) coated, antibody mixed with biotinylated human VEGF, streptavidin-HRP
Description: as §1

VEGF = assay: cell-based or functional assay

Sequence of UniProt B0LAJ3 (B0LAJ3 entry or part of it limits assumed, form in doubt): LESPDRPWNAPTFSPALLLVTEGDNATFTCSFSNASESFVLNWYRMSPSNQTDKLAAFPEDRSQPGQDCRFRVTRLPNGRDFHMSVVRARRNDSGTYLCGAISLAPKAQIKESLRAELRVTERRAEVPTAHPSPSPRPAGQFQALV

B1: AK112 analog (bispecific antibody, human IgG1, kappa)
heavy: EVQLVESGGGLVQPGGSLRLSCAASGYTFTNYGMNWVRQAPGKGLEWVGWINTYTGEPTYAADFKRRFTFSLDTSKSTAYLQMNSLRAEDTAVYYCAKYPHYYGSSHWYFDVWGQGTLVTVSSASTKGPSVFPLAPSSKSTSGGTAALGCLVKDYFPEPVTVSWNSGALTSGVHTFPAVLQSSGLYSLSSVVTVPSSSLGTQTYICNVNHKPSNTKVDKKV[human IgG1 Fc with changes left out]GGGGSGGGGSGGGGSGGGGSEVQLVESGGGLVQPGGSLRLSCAASGFAFSSYDMSWVRQAPGKGLDWVATISGGGRYTYYPDSVKGRFTISRDNSKNNLYLQMNSLRAEDTALYYCANRYGEAWFAYWGQGTLVTVSSGGGGSGGGGSGGGGSGGGGSDIQMTQSPSSMSASVGDRVTFTCRASQDINTYLSWFQQKPGKSPKTLIYRANRLVSGVPSRFSGSGSGQDYTLTISSLQPEDMATYYCLQYDEFPLTFGAGTKLELK
light: DIQMTQSPSSLSASVGDRVTITCSASQDISNYLNWYQQKPGKAPKVLIYFTSSLHSGVPSRFSGSGSGTDFTLTISSLQPEDFATYYCQQYSTVPWTFGQGTKVEIKRTVAAPSVFIFPPSDEQLKSGTASVVCLLNNFYPREAKVQWKVDNALQSGNSQESVTEQDSKDSTYSLSSTLTLSKADYEKHKVYACEVTHQGLSSPVTKSFNRGEC
notes: Prepared in-house; bispecific antibody targeting PD-1 and VEGF; its anti-VEGF part is a Bevacizumab antibody fragment; also called control AK112 analog
[1]
  EC50: 1.7 nM
  TOP OD: 2.56 OD450
[2]
  IC50: 4.61 nM
[3]
  EC50: 0.528 nM
  TOP OD: 2.19 OD450
[4]
  EC50: 0.64 nM
  TOP OD: 2.68 OD450
[5]
  EC50: 0.254 nM
[6]
  EC50: 0.634 nM
  TOP OD: 3.42 OD450
[7]
  IC50: 2.9 nM
[8]
  IC50: 6.48 nM
VEGF
  maximum inhibition rate (HUVEC proliferation): ~40%
